Test results as given in PubChem BioAssay AID485294 (National Center for Advancing Translational Sciences (NCATS), 2010).
The campaign covered roughly 370,000 compounds. About 150 (0.041%) were called active. Inconclusive results, whose numbers are uncertain, are shown with a selection of clear calls. The call rests on the fitted dose curve; in most records, active means well fitted inhibition curve with a large enough effect; inconclusive means small, poorly fitted or top-dose-only effect; inactive means flat fitted curve, though single readings scatter. Potencies of inconclusive entries are left out as doubtful fits.
Further: nearly all actives have a fitted effect of over 25% in size.
Potency means the concentration at half of the fitted maximal effect; tags describe the fitted curve by direction and shape.
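Wherever activity change, negative = inhibition is given: 0% = no-compound wells and -100% = no-enzyme wells.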

What follows are compounds tested against Beta-lactamase (Escherichia coli (strain K12)) (UniProt P00811) (assay: qHTS Inhibitors of AmpC Beta-Lactamase (assay with detergent)). Conditions: AmpC hydrolysis of nitrocefin, absorbance 480 nm, 0.01% Triton; activity change, negative = inhibition: at 114 µM (top of the series).
Chain of UniProt P00811 (P00811 whole entry, looked up): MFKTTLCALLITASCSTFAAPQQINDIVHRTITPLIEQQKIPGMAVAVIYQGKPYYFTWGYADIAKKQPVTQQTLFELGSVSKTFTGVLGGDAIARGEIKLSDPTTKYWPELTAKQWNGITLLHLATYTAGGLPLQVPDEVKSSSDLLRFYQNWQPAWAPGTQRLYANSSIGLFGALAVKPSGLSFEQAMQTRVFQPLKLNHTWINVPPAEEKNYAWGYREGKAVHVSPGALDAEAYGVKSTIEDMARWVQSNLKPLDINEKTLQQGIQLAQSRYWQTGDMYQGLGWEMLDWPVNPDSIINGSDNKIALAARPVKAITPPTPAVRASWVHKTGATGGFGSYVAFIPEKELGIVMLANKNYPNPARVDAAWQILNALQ
In short: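 AmpC (5.3 nM in the dispensed reagent) in 20 mM phosphate pH 7.0 with 0.01% (detergent screen) or 0.0001% Triton X-100 was preincubated with compounds for 15 min at room temperature. Nitrocefin was then added from an 800 uM solution, and hydrolysis was followed at 480 nm.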
`Cc1cc(C)c2nc(C)cc(N/N=C/c3ccc(O)cc3)c2c1` was tested, and the Potency was inconclusive [inhibitor, full curve, poor fit].
With `CCc1ccc(-n2c(=O)c3c4c(sc3n(Cc3ccccc3C#N)c2=O)CCC4)cc1` the “activity change, negative = inhibition” value was inactive: -0.488%.
`CCN(CC)S(=O)(=O)c1ccc(-c2nnc(SCc3nnc(-c4ccccc4)o3)o2)cc1` was tested, and the “activity change, negative = inhibition” value was inactive: -14.5%.
`C/C(=N\NC(=O)c1ccccc1O)c1ccc(NC(=O)c2ccccc2)cc1` was tested, and the Potency was inconclusive [inhibitor, partial curve].
`CCc1ccc(/C=C/c2c[nH]c3ccccc23)[n+](CC)c1` was tested, and the “activity change, negative = inhibition” value was inactive: -6.23%.
With `OCCn1c(SC2CCCCC2)nc2ccccc21` the Potency was inconclusive [inhibitor, full curve, poor fit].
For `CC(=O)NNC(=S)NC(=O)c1ccccc1`, the “activity change, negative = inhibition” value was inactive: -0.524%.
In the case of `O=C(/C=C/c1ccc2c(c1)OCCCO2)c1ccc2ccccc2c1O`, the “activity change, negative = inhibition” value is reported as inactive: 1.21%.
For `O=C(NC(=S)N(Cc1ccccc1)c1ccccn1)C1CCCCC1`, the Potency was inconclusive [inhibitor, partial curve, poor fit].
For `COc1cccc(OC)c1C(=O)N1CCNCC1`, the Potency was inconclusive [inhibitor, full curve, poor fit].
With `CCOC(=O)c1cnc2ccc(C(=O)OC)cc2c1NCCCN1CCOCC1` the Potency was inconclusive [inhibitor, full curve, poor fit].
For `O=C(NCc1cccnc1)c1ccc(COc2ccccc2Cl)o1`, the “activity change, negative = inhibition” value was inactive: -1.73%.
For `Cc1cc(N2CCCC2)nc2ccc(NC(=S)NCCCOC(C)C)cc12`, the “activity change, negative = inhibition” value was inactive: 7.19%.
In the case of `COC(=O)C1Cc2ccccc2CN1S(=O)(=O)c1ccc(F)cc1` (stereo not given), the “activity change, negative = inhibition” value is reported as inactive: -8.9%.
For `CCOc1ccc(NC(=O)NCCN2C(C)CCCC2C)cc1` (stereo not given), the Potency was inconclusive [inhibitor, full curve, poor fit].
`O=C(c1ccco1)N1CCN(C(c2ccccc2)c2nnnn2Cc2cccs2)CC1` (stereo not given) was tested, and the Potency was inconclusive [inhibitor, single point].
With `COCCn1nnnc1C(c1ccc(O)c(OC)c1)N1CCc2ccccc2C1` (stereo not given) the “activity change, negative = inhibition” value was inactive: 5.58%.
`O=C(C1CCCN(S(=O)(=O)c2cccc3nonc23)C1)N1CCC(Cc2ccccc2)CC1` (stereo not given) was tested, and the “activity change, negative = inhibition” value was inactive: -4.33%.
In the case of `O=C(c1cnc2ccc3ccccc3c2c1)c1cc(F)ccc1O`, the “activity change, negative = inhibition” value is reported as inactive: 1.24%.
`C/C(=N\Nc1nc2ccc(Cl)cc2o1)c1ccccc1` was tested, and the “activity change, negative = inhibition” value was inactive: 8.88%.
`CC(C)(C)OC(=O)N1CCC(NC(=O)c2[nH]cnc2C(=O)Nc2ccc(Cl)cc2)CC1` was tested, and the “activity change, negative = inhibition” value was inactive: 7.27%.
With `C/C(N)=C(/C#N)C(=O)COC(=O)c1ccccc1O` the Potency was inconclusive [inhibitor, full curve].
With `Cc1nnc(SCC(=O)c2cc(C)n(C3CC3)c2C)s1` the Potency was inconclusive [inhibitor, full curve].
In the case of `O=C(O)c1cn(-c2ccc(F)cc2)c2cc(Cl)c(F)cc2c1=O`, the Potency is reported as inconclusive [inhibitor, single point].
With `Cc1noc(C)c1COC(=O)CCCc1nc2ccccc2s1` the “activity change, negative = inhibition” value was inactive: -9.21%.
`COc1ccccc1NC(=O)CCCc1c[nH]c2ccccc12` was tested, and the Potency was inconclusive [inhibitor, full curve].
With `CCC(Oc1ccccc1-c1nnc(-c2ccccc2)o1)C(=O)Nc1ccc(C(C)=O)cc1` (stereo not given) the “activity change, negative = inhibition” value was inactive: -0.95%.
With `CC1CN(C(=O)c2ccc(OC3CCN(Cc4ccccn4)CC3)cc2)CCN1C` (stereo not given) the Potency was inconclusive [inhibitor, full curve].
For `CCN1C(=O)/C(=C2/Sc3ccccc3N2CC)SC1=S`, the Potency was inconclusive [inhibitor, partial curve, poor fit].
With `Cc1ccc(NC(=O)c2ccc(C(C)(C)C)cc2)cc1[N+](=O)[O-]` the Potency was inconclusive [inhibitor, single point].
`COc1cccc(N2CCN(C3CC(=O)N(c4ccc(C)c(Cl)c4)C3=O)CC2)c1` (stereo not given) was tested, and the Potency was inconclusive [inhibitor, full curve].
For `CCCCCCN1CCN(c2ccc(Cl)cc2)CC1`, the Potency was inconclusive [inhibitor, full curve].
`COc1cccc(OC)c1C(=O)NC(=O)Nc1c(C)cccc1C` was tested, and the Potency was inconclusive [inhibitor, single point].
For `CN(CC(=O)Nc1cccc(F)c1)C(=O)/C=C/c1cc(Br)ccc1OC(F)F`, the Potency was inconclusive [inhibitor, full curve, poor fit].
In the case of `Cc1ncc(CO)c2c1Oc1nc(-c3ccccc3Cl)nc(SCc3ccccc3F)c1C2`, the “activity change, negative = inhibition” value is reported as inactive: -5.73%.
`COc1ccccc1CN(C)CC(=O)Nc1ccc(Cl)cc1F` was tested, and the Potency was inconclusive [inhibitor, full curve, poor fit].
With `COc1ccc(CCn2c(-c3ccc(F)cc3)nc3c(c(=O)c4ccccc4n3C)c2=O)cc1OC` the “activity change, negative = inhibition” value was inactive: 3.65%.
In the case of `O=C(NC1(C(F)(F)F)NC(=O)N(CC2CCCCC2)C1=O)c1ccco1` (stereo not given), the Potency is reported as inconclusive [inhibitor, full curve, poor fit].
In the case of `Cc1ccc(C)c(NC(=O)n2ncc3cc(Cl)ccc32)c1`, the “activity change, negative = inhibition” value is reported as inactive: 9.6%.
With `Cc1ccc(NC(=O)c2c(C(F)(F)F)nn(C)c2SCc2ccc(Cl)cc2)cc1C` the Potency was inconclusive [inhibitor, partial curve, poor fit].
With `COc1ccc(Cl)cc1N1C(=O)c2cccnc2C1=O` the Potency was inconclusive [inhibitor, full curve, poor fit].
In the case of `CCNS(=O)(=O)c1cc(OC)ccc1OC`, the Potency is reported as inconclusive [inhibitor, full curve, poor fit].
For `COc1cccc2c1OCC(CN1CCN(Cc3ccccc3F)C(CCO)C1)=C2` (stereo not given), the Potency was inconclusive [inhibitor, partial curve, poor fit].
For `Cc1cc(NC(=O)c2cccc(S(=O)(=O)N3CC(c4ccccc4)CC3=O)c2)no1` (stereo not given), the Potency was inconclusive [inhibitor, full curve, poor fit].
For `CCCCCc1cc(=O)oc2c(C(CCN3CCCCC3)c3ccc(OC)cc3)c(OC)cc(OC)c12` (stereo not given), the “activity change, negative = inhibition” value was inactive: 6.41%.
`Cc1cc(=O)oc2c(C)c(OC3CCCCC3=O)ccc12` (stereo not given) was tested, and the “activity change, negative = inhibition” value was inactive: -8.63%.
For `O=C(CNC(=O)c1ccco1)NCC(=O)OCc1c(F)cccc1Cl`, the Potency was inconclusive [inhibitor, partial curve, poor fit].
With `N=C(N)SCc1cn(-c2ccccc2)nc1-c1ccc(Br)cc1` the “activity change, negative = inhibition” value was inactive: 0.081%.
With `Cc1ccc(C(C)NC(=O)Cn2nc(C)c([N+](=O)[O-])c2C)cc1` (stereo not given) the Potency was inconclusive [inhibitor, full curve].
`CCOc1ccc(S(=O)(=O)N/N=C(\C)c2ccc3c(c2)OCO3)cc1` was tested, and the Potency was inconclusive [inhibitor, partial curve, poor fit].
With `COc1ccc(OC)c(CN2CCN(c3ccccc3OC)CC2)c1` the Potency was inconclusive [inhibitor, full curve, poor fit].
In the case of `CN1CCCC(OC(=O)c2cc(Cl)ccc2Cl)C1` (stereo not given), the Potency is reported as inconclusive [inhibitor, partial curve, poor fit].
`Cc1ccc(S(=O)(=O)N2CCC(C(=O)OCC(=O)N(CC(C)C)C3CCS(=O)(=O)C3)CC2)cc1C` (stereo not given) was tested, and the Potency was inconclusive [inhibitor, single point].
With `COc1cc(/C=C2/SC(=S)N(Cc3ccccc3)C2=O)ccc1OS(C)(=O)=O` the “activity change, negative = inhibition” value was inactive: -12.5%.
In the case of `Cc1cccc(NC(=O)C2CCCN2S(=O)(=O)c2ccc3nc(-c4ccccc4)[nH]c3c2)c1` (stereo not given), the “activity change, negative = inhibition” value is reported as inactive: -0.138%.
With `O=C(O)c1ccc(/C=N/N2CCN(c3ccccc3)CC2)cc1` the Potency was inconclusive [inhibitor, partial curve].
For `Cc1ccc2occ(/C=N/NC(=O)[C@@H](N)Cc3ccccc3)c(=O)c2c1`, the “activity change, negative = inhibition” value was inactive: 0.536%.
For `O=C(Nc1cccc(Cl)c1)C1C2C=CC3(O2)C1C(=O)N(CCCN1CCCCC1)C3C(=O)NC1CCCCC1` (stereo not given), the Potency was inconclusive [inhibitor, partial curve, poor fit].
In the case of `O=C(N/C(=C/c1cccc(Br)c1)c1nc(=S)[nH][nH]1)c1ccccc1`, the Potency is reported as inconclusive [inhibitor, single point].
In the case of `COc1ccc(C(C)=O)cc1COC(=O)Cc1cc(OC)c(OC)c(OC)c1`, the Potency is reported as inconclusive [inhibitor, full curve, poor fit].
In the case of `CN(C)c1ccc(N=Cc2nc(-c3ccccc3)oc2OC(=O)c2cccc(Cl)c2)cc1`, the Potency is reported as inconclusive [inhibitor, single point].
With `CCOc1[nH]n(-c2ccc(Cl)cc2)c(=O)c1C=NCc1cccnc1` the Potency was inconclusive [inhibitor, full curve, poor fit].
`O=C(Oc1ccccc1)N1CCN(c2ccccc2F)CC1` was tested, and the “activity change, negative = inhibition” value was inactive: -2.02%.
`CC1CCc2c(sc(N)c2C(N)=O)C1` (stereo not given) was tested, and the Potency was inconclusive [inhibitor, full curve, poor fit].
`O=C(COc1ccc2c3c(c(=O)oc2c1)CCCC3)N1C[C@H]2C[C@@H](C1)c1cccc(=O)n1C2` was tested, and the Potency was inconclusive [inhibitor, full curve, poor fit].
With `COc1ccccc1C(CNC(=O)c1cc(C)nc2ccccc12)N(C)C` (stereo not given) the “activity change, negative = inhibition” value was inactive: -4.84%.
`Cc1ccccc1Cc1ccc(Cl)nn1` was tested, and the Potency was inconclusive [inhibitor, partial curve].
With `CCOc1ccc(CN2CCNC(=O)C2CC(=O)N(C)CC2CCOCC2)cc1` (stereo not given) the Potency was inconclusive [inhibitor, full curve, poor fit].
`Cn1cccc1Cc1nnc(SCC(=O)NCc2ccccc2Cl)n1-c1ccc(F)cc1` was tested, and the Potency was inconclusive [inhibitor, full curve, poor fit].
With `COC(=O)[C@@H](NCc1cccc(CN([C@H](C(=O)OC)C(C)C)S(C)(=O)=O)c1)C(C)C` the Potency was inconclusive [inhibitor, full curve, poor fit].
